Test results from PubChem BioAssay (NCI).
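Protocol summary: plate cells (96-well), add compound at 5 concentrations, incubate 48 h, interpolate endpoints linearly. Here, GI50 denotes the concentration required for 50% inhibition of growth. TGI: total growth inhibition.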

System: NCI-H322M lung
Assay: growth of human tumour cells (NCI), 48 h

Q: What does the source list for `CCCCNNC(=O)c1ccc(-c2cccc(F)c2F)cc1`?
A: GI50: 2770 nM; TGI: 84.1 µM
